Measured values reported in the RNAGym collection of RNA variant scans (doi:10.7554/elife.90254).
Read counts are not given, so values of variants with three or more changes are uncertain.

B1: LINE1-mini (parent)
chain: GGCAGAGCUCAACACAGCGUGGCAAAGUGGCUGUGGCUAGACUGCC

Variants of: B1
Assay: self-cleavage, relative activity (ratio to wild type); higher = more cleavage; in vitro, sequencing; the parent is a self-cleaving ribozyme

| Variant | self-cleavage |
| --- | --- |
| GGCGGAUAUCAACACAGCGUGGCAAAGUGGCUGUGGCUAUACUGCC [A4G G7U C8A G40U] | 0.3 |
| GGCGGACCUCCACAUAGCGUGGCAAAGUGGCUGUAGCUAGACUGCC [A4G G7C A11C C15U G35A] | 0.01 |
| GGCGGAGCUCAACACAGCGUUGCAAAGUGGCUGUGGCUAGUCUGCC [A4G G21U A41U] | 0.49 |
| GGCGGAGCUCAACACAUCGAGGCAAAGUAGCUGUUGCUAGACUGCC [A4G G17U U20A G29A G35U] | 0.73 |
| GGCGGAGCUCAACACAGCAUGGCCUAGUGGCUGUGGCUAGAGGGCC [A4G G19A A24C A25U C42G U43G] | 0.01 |
| GGCGGAGCUCAACACAGCGUUGCAAAGCGGCUGUGCCUAGACUACC [A4G G21U U28C G36C G44A] | 0.33 |
| GGCGGAUCUCAACACAGCGCGGCAAAGUGGCUGUGGCUAGACUGCC [A4G G7U U20C] | 0.07 |
| GGCGGAGCUCAACACAGCGUGGCAAAGUCGCUGUGGCUAUACUGCC [A4G G29C G40U] | 0.03 |
| GGCGGAGCUCAACACAGCGUGGCAAAUUCGCUGUGGCUAGACUGCC [A4G G27U G29C] | 0.04 |
| GGCGGAGCUCAACACAGCGUGCCAAAGUGUGUGUGGCUAGACUGCC [A4G G22C G30U C31G] | 0.04 |
| GGCGGAGCUCAACACAUCGUGGCAAAGUGGCUGUGGCUAGACUGAC [A4G G17U C45A] | 0.06 |
| GGCGGAGCUCAACACAGCGUGGCAAAGUGGCUAUGGCUAGACUGAC [A4G G33A C45A] | 0.05 |
| GGCGUAGCUCAACACAGCGUGGCAAAGUGGCGGUGGCUAGACUGCA [A4G G5U U32G C46A] | 0.02 |
| GGCGGAGCUCAACACAGCGUGGCAAAGUAGCUGGGGCUAGACUGCC [A4G G29A U34G] | 0.2 |
| GGCGGAGCUCAACACAGCGUUGCAAAGUGGCAGUGGCUAUACAGCC [A4G G21U U32A G40U U43A] | 0.04 |
| GGCGGAGCUCAACACAUCGUGGCAAAGUAGCUGUGGCUAGACUGCC [A4G G17U G29A] | 0.24 |
| GGCGUAGCUCAAAACCGCGUGGCAAAGGGGCUGUGGCGAGCCUGCC [A4G G5U C13A A16C U28G U38G A41C] | 0.26 |
| GGCGGAACGCAACACAGCGUGGCAAAGUGGCUGUGGCUAGACUGCC [A4G G7A U9G] | 0.07 |
| GGCGGAGCUCAACACAGCGUGACAAAGUGGCUGUAGAUAGACUCCC [A4G G22A G35A C37A G44C] | 0.07 |

| Variant | self-cleavage |
| --- | --- |
| GGCGGAGCUCAACACAGCGUGACGAAGUGGCUGUGCCUAAACUGCC [A4G G22A A24G G36C G40A] | 0.05 |
| GGCGGAGCUCAACACAGCGUGGCAAAGUUGCUGUGCCUAGACUGCC [A4G G29U G36C] | 0.09 |
| GGCGGAGCUCAACACAUCGUGGCAAGGUGGCUGUGGCUAGACUCCC [A4G G17U A26G G44C] | 0.06 |
| GGCGGAGCUCAACACAGCGUGGCAAAAUGGCUGUGGCUAGACUGCA [A4G G27A C46A] | 1.43 |
| GGCGGAGCUCAACACAGCGUGGCAAACUGGCUGUGACUAGAAUGCC [A4G G27C G36A C42A] | 0.01 |
| GGCGGAGCUCAACACAGCGUUGCAAAGUGGCUGUGGCUACUCUGCC [A4G G21U G40C A41U] | 0.09 |
| GGCGGAGCUCAACACAGCAUGGCAAAGUGCCUGUGGCAAGACUACC [A4G G19A G30C U38A G44A] | 0.04 |
| GGCGGAGCUCAACACAGCGUGGCAAAGUUGCUGGGGUUGAACUGCC [A4G G29U U34G C37U A39G G40A] | 0.01 |
| GGCGGACCUCAACGCAGCGUGGCAAAGAGGCUGUGGCAAGACUGCC [A4G G7C A14G U28A U38A] | 0.43 |
| GGCGGAGCUCAACACAGCGUGACAAAGUGGCAGUGGCUAGAAUGCC [A4G G22A U32A C42A] | 0.08 |
| GGCGUAGCUCAACACAGCGUGGCAAAGUGGCUGUGGCUGGUCCGCC [A4G G5U A39G A41U U43C] | 0.01 |
| GGCGGAACUCAAUCGAGCGUGGCAAAGUGGCUGUGGCUAGACUGCC [A4G G7A C13U A14C C15G] | 0.04 |
| GGCGGAGCUCAACACAGCAUGGUAAAGCGGCUGUGGCUAUACUGCC [A4G G19A C23U U28C G40U] | 0.15 |
| GGCGGAGCUCAACACAGCUUGGCAAAGUGGCUGUGGAUAUACUGCC [A4G G19U C37A G40U] | 0.44 |
| GGCGGAGCUCAACACAGCGUGUCAAAGUGGUUCUGGCUAGACUGCC [A4G G22U C31U G33C] | 0.12 |
| GGCGGAGCUCAACACAGCGUCGCAAAGUGACUGUGGCUAGACGGCC [A4G G21C G30A U43G] | 0 |
| GGCGGAACUCAACACAGCGUGGCAAAGUGGCUGUGCCUCGACUACA [A4G G7A G36C A39C G44A C46A] | 0.11 |
| GGCGGAGCUCAACACAGCGUGCCAAAGUGGCUGUGGCCAGACUGCC [A4G G22C U38C] | 0.27 |
| GGCGGAGCUCAACACAGCAUGGCAAAAUGGCUGUGGCUAGACUGCC [A4G G19A G27A] | 0.09 |

| Variant | self-cleavage |
| --- | --- |
| GGCGGAGCUCAACACAGCGUGGCAAAAUGGCUGUGGCUGGACUGCC [A4G G27A A39G] | 0.09 |
| GGCGGAUCUCAACACAGCGUGGCAAAGUGGCUGUUGCUAGACUGCC [A4G G7U G35U] | 0.13 |
| GGCGGAGCUCAACACAGCGUGGCAAAGUGUCUGUGUCUAGACUGCC [A4G G30U G36U] | 0.03 |
| GGCGGAGCUCAACACAUCGUGGCAAAGUGGCUGUGGAUAGACUGCC [A4G G17U C37A] | 0.03 |
| GGCGGAGCUCAACACAGCGUCGUAAAGUGGGCGUGGCUAGACUGCC [A4G G21C C23U C31G U32C] | 0.18 |
| GGCGGACCACAACACAGCCUCUCAAAGUGGUUGUGGCUAGACUGCC [A4G G7C U9A G19C G21C G22U C31U] | 0.04 |
| GGCGGAGCUCAACACAGCUUGUCAAAGUGGCUGUGGUUACACUGCU [A4G G19U G22U C37U G40C C46U] | 0.1 |
| GGCGGAUCUAAACACAGCGUGGCAAAGUGGCUGUGGCUGGACUGCC [A4G G7U C10A A39G] | 0.01 |
| GGCGUAGCUCUACACAGCGUGGCAAAGUGGCUGUGACUAGUCUGGC [A4G G5U A11U G36A A41U C45G] | 0.01 |
| GGCGUAGCUCAACACAGCGCGGCAAAGUGGCUUUGGCCAGACUGCC [A4G G5U U20C G33U U38C] | 0.05 |
| GGCGGAUCUCAACACAGCGUGGCAAUGUGGCUGUGGCUAGACUGCC [A4G G7U A26U] | 0.09 |
| GGCGGAACUCAACACAGCGUGGCAUAGUGGCUGUGGCUACACUGCC [A4G G7A A25U G40C] | 0.34 |
| GGCGGAGCUCAACACAGCGUGGCAAAGUUGCUGUGGCUAGUCUGCC [A4G G29U A41U] | 0.29 |
| GGCGGAGCUCAACACACCGUGGCAAAGAGGCUGUGGCUACACUCCC [A4G G17C U28A G40C G44C] | 0.03 |
| GGCGGAGCUCAACACAUCGUAUCAAUUUGGCAGUUGCUAGACUGCC [A4G G17U G21A G22U A26U G27U U32A G35U] | 0.05 |
| GGCGGAGCUCAACACAAAGUGGCAAAGUCGCUGUGGCUAGAUUGCC [A4G G17A C18A G29C C42U] | 0.03 |
| GGCGGAGCUCAACACAGCGUUGCAAAGUGGCUGUUGCUAGACUGCC [A4G G21U G35U] | 0.12 |
| GGCGGAGCUCAACACAGCGUUGCAAAGUAUCUGUGGCUAGACUGCC [A4G G21U G29A G30U] | 1.17 |
